{
  "source": "the supplement of paper PMC8728848",
  "binders": {"B1": {"name": "OVGAL11 (Ovis aries), AAF64320 (protein)", "chain": "MDSLPNPYLQSVSLTVCYMVKIKANLLSAFGKNPELQVDFGTGTGQGGNIPFRFWYCDGMVVMNTFTDGSWQKEEKVLTDAFVPGQPFELQFLVLEKEYQVFVKNKPICQFAHRLPLQSVKMLDVRGDIVLTSVDTL"}},
  "test_in_all_cases": "glycan array binding signal (z-score within array); higher = stronger binding",
  "details_in_all_cases": "glycan notation: IUPAC condensed, linker removed",
  "key": {"[1]": {"molecular_target": "Neu5Ac(a2-6)Gal(b1-4)GlcNAc(b1-6)[Gal(b1-3)]GalNAc", "how_it_was_run": "(§1)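 The binding signal is a Z-score computed within each array and averaged over linkers. Arrays of the same protein sequence at different concentrations or buffers were also averaged together. Data originate from 3228 arrays in the Consortium for Functional Glycomics database, kept only where the protein sequence was available.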"}, "[2]": {"molecular_target": "Neu5Ac(a2-6)Gal(b1-4)GlcNAc6S", "how_it_was_run": "as §1"}, "[3]": {"molecular_target": "Neu5Ac(a2-6)GalNAc", "how_it_was_run": "as §1"}, "[4]": {"molecular_target": "Neu5Ac(a2-6)GalNAc(b1-4)GlcNAc", "how_it_was_run": "as §1"}, "[5]": {"molecular_target": "Neu5Ac(a2-6)GalNAc(b1-4)GlcNAc6S", "how_it_was_run": "as §1"}, "[6]": {"molecular_target": "Neu5Ac(a2-6)GlcNAc(b1-4)GlcNAc", "how_it_was_run": "as §1"}, "[7]": {"molecular_target": "Neu5Ac(a2-6)GlcNAc(b1-4)GlcNAc(b1-4)GlcNAc", "how_it_was_run": "as §1"}, "[8]": {"molecular_target": "Neu5Ac(a2-8)Neu5Ac", "how_it_was_run": "as §1"}, "[9]": {"molecular_target": "Neu5Ac(a2-8)Neu5Ac(a2-3)Gal(b1-3)GalNAc(b1-4)[Neu5Ac(a2-3)]Gal(b1-4)Glc", "how_it_was_run": "as §1"}, "[10]": {"molecular_target": "Neu5Ac(a2-8)Neu5Ac(a2-3)Gal(b1-3)GalNAc(b1-4)[Neu5Ac(a2-8)Neu5Ac(a2-3)]Gal(b1-4)Glc", "how_it_was_run": "as §1"}, "[11]": {"molecular_target": "Neu5Ac(a2-8)Neu5Ac(a2-3)Gal(b1-4)Glc", "how_it_was_run": "as §1"}, "[12]": {"molecular_target": "Neu5Ac(a2-8)Neu5Ac(a2-3)Gal(b1-4)GlcNAc", "how_it_was_run": "as §1"}, "[13]": {"molecular_target": "Neu5Ac(a2-8)Neu5Ac(a2-3)[Gal(b1-3)GalNAc(b1-4)]Gal(b1-4)Glc", "how_it_was_run": "as §1"}, "[14]": {"molecular_target": "Neu5Ac(a2-8)Neu5Ac(a2-3)[GalNAc(b1-4)]Gal(b1-4)Glc", "how_it_was_run": "as §1"}, "[15]": {"molecular_target": "Neu5Ac(a2-8)Neu5Ac(a2-8)Neu5Ac", "how_it_was_run": "as §1"}, "[16]": {"molecular_target": "Neu5Ac(a2-8)Neu5Ac(a2-8)Neu5Ac(a2-3)Gal(b1-4)Glc", "how_it_was_run": "as §1"}, "[17]": {"molecular_target": "Neu5Ac(a2-8)Neu5Ac(a2-8)Neu5Ac(a2-3)[Gal(b1-3)GalNAc(b1-4)]Gal(b1-4)Glc", "how_it_was_run": "as §1"}, "[18]": {"molecular_target": "Neu5Ac(a2-8)Neu5Ac(a2-8)Neu5Ac(a2-3)[GalNAc(b1-4)]Gal(b1-4)Glc", "how_it_was_run": "as §1"}, "[19]": {"molecular_target": "Neu5Ac(a2-8)Neu5Ac(a2-8)Neu5Ac(a2-8)Neu5Ac(a2-3)[GalNAc(b1-4)]Gal(b1-4)Glc", "how_it_was_run": "as §1"}, "[20]": {"molecular_target": "Neu5Ac(a2-8)Neu5Gc(a2-3)Gal(b1-4)GlcNAc", "how_it_was_run": "as §1"}, "[21]": {"molecular_target": "Neu5Ac(b2-6)Gal(b1-4)GlcNAc", "how_it_was_run": "as §1"}, "[22]": {"molecular_target": "Neu5Ac(b2-6)GalNAc", "how_it_was_run": "as §1"}, "[23]": {"molecular_target": "Neu5Ac9Ac(a2-3)Gal(b1-3)GlcNAc", "how_it_was_run": "as §1"}, "[24]": {"molecular_target": "Neu5Ac9Ac(a2-3)Gal(b1-4)GlcNAc", "how_it_was_run": "as §1"}, "[25]": {"molecular_target": "Neu5Ac9Ac(a2-6)Gal(b1-4)GlcNAc", "how_it_was_run": "as §1"}, "[26]": {"molecular_target": "Neu5Gc(a2-3)Gal(b1-3)GlcNAc", "how_it_was_run": "as §1"}, "[27]": {"molecular_target": "Neu5Gc(a2-3)Gal(b1-3)[Fuc(a1-4)]GlcNAc", "how_it_was_run": "as §1"}, "[28]": {"molecular_target": "Neu5Gc(a2-3)Gal(b1-4)Glc", "how_it_was_run": "as §1"}, "[29]": {"molecular_target": "Neu5Gc(a2-3)Gal(b1-4)GlcNAc", "how_it_was_run": "as §1"}, "[30]": {"molecular_target": "Neu5Gc(a2-3)Gal(b1-4)GlcNAc(b1-3)Gal(b1-4)GlcNAc(b1-2)Man(a1-3)[Neu5Gc(a2-3)Gal(b1-4)GlcNAc(b1-3)Gal(b1-4)GlcNAc(b1-2)Man(a1-6)]Man(b1-4)GlcNAc(b1-4)GlcNAc", "how_it_was_run": "as §1"}, "[31]": {"molecular_target": "Neu5Gc(a2-3)Gal(b1-4)[Fuc(a1-3)]GlcNAc", "how_it_was_run": "as §1"}, "[32]": {"molecular_target": "Neu5Gc(a2-3)Gal(b1-4)[Fuc(a1-4)]GlcNAc", "how_it_was_run": "as §1"}, "[33]": {"molecular_target": "Neu5Gc(a2-6)Gal(b1-4)GlcNAc", "how_it_was_run": "as §1"}, "[34]": {"molecular_target": "Neu5Gc(a2-6)GalNAc", "how_it_was_run": "as §1"}, "[35]": {"molecular_target": "Neu5Gc(a2-8)Neu5Ac(a2-3)Gal(b1-4)GlcNAc", "how_it_was_run": "as §1"}, "[36]": {"molecular_target": "Neu5Gc(a2-8)Neu5Gc(a2-3)Gal(b1-4)GlcNAc", "how_it_was_run": "as §1"}, "[37]": {"molecular_target": "Neu5Gc(a2-8)Neu5Gc(a2-3)Gal(b1-4)GlcNAc(b1-3)Gal(b1-4)GlcNAc", "how_it_was_run": "as §1"}, "[38]": {"molecular_target": "Neu5Gc(a2-8)Neu5Gc(a2-6)Gal(b1-4)GlcNAc", "how_it_was_run": "as §1"}, "[39]": {"molecular_target": "Neu5Gc(b2-6)Gal(b1-4)GlcNAc", "how_it_was_run": "as §1"}},
  "note": "Some of the results follow.",
  "data": [
    {"binder": "B1", "values": [
      {"measurement": "glycan array binding signal (z-score)", "setting": "[1]", "value": -0.111},
      {"measurement": "glycan array binding signal (z-score)", "setting": "[2]", "value": -0.319},
      {"measurement": "glycan array binding signal (z-score)", "setting": "[3]", "value": -0.174},
      {"measurement": "glycan array binding signal (z-score)", "setting": "[4]", "value": -0.325},
      {"measurement": "glycan array binding signal (z-score)", "setting": "[5]", "value": -0.112},
      {"measurement": "glycan array binding signal (z-score)", "setting": "[6]", "value": -0.131},
      {"measurement": "glycan array binding signal (z-score)", "setting": "[7]", "value": -0.046},
      {"measurement": "glycan array binding signal (z-score)", "setting": "[8]", "value": -0.207},
      {"measurement": "glycan array binding signal (z-score)", "setting": "[9]", "value": 1.75},
      {"measurement": "glycan array binding signal (z-score)", "setting": "[10]", "value": -0.057},
      {"measurement": "glycan array binding signal (z-score)", "setting": "[11]", "value": -0.306},
      {"measurement": "glycan array binding signal (z-score)", "setting": "[12]", "value": -0.116},
      {"measurement": "glycan array binding signal (z-score)", "setting": "[13]", "value": 13.5},
      {"measurement": "glycan array binding signal (z-score)", "setting": "[14]", "value": -0.369},
      {"measurement": "glycan array binding signal (z-score)", "setting": "[15]", "value": -0.256},
      {"measurement": "glycan array binding signal (z-score)", "setting": "[16]", "value": -0.262},
      {"measurement": "glycan array binding signal (z-score)", "setting": "[17]", "value": -0.044},
      {"measurement": "glycan array binding signal (z-score)", "setting": "[18]", "value": 0.144},
      {"measurement": "glycan array binding signal (z-score)", "setting": "[19]", "value": -0.225},
      {"measurement": "glycan array binding signal (z-score)", "setting": "[20]", "value": 0.807},
      {"measurement": "glycan array binding signal (z-score)", "setting": "[21]", "value": -0.075},
      {"measurement": "glycan array binding signal (z-score)", "setting": "[22]", "value": -0.064},
      {"measurement": "glycan array binding signal (z-score)", "setting": "[23]", "value": -0.105},
      {"measurement": "glycan array binding signal (z-score)", "setting": "[24]", "value": -0.116},
      {"measurement": "glycan array binding signal (z-score)", "setting": "[25]", "value": 0.262},
      {"measurement": "glycan array binding signal (z-score)", "setting": "[26]", "value": -0.172},
      {"measurement": "glycan array binding signal (z-score)", "setting": "[27]", "value": -0.072},
      {"measurement": "glycan array binding signal (z-score)", "setting": "[28]", "value": -0.214},
      {"measurement": "glycan array binding signal (z-score)", "setting": "[29]", "value": -0.362},
      {"measurement": "glycan array binding signal (z-score)", "setting": "[30]", "value": -0.031},
      {"measurement": "glycan array binding signal (z-score)", "setting": "[31]", "value": -0.101},
      {"measurement": "glycan array binding signal (z-score)", "setting": "[32]", "value": 0.714},
      {"measurement": "glycan array binding signal (z-score)", "setting": "[33]", "value": -0.26},
      {"measurement": "glycan array binding signal (z-score)", "setting": "[34]", "value": -0.016},
      {"measurement": "glycan array binding signal (z-score)", "setting": "[35]", "value": -0.075},
      {"measurement": "glycan array binding signal (z-score)", "setting": "[36]", "value": -0.07},
      {"measurement": "glycan array binding signal (z-score)", "setting": "[37]", "value": -0.115},
      {"measurement": "glycan array binding signal (z-score)", "setting": "[38]", "value": -0.096},
      {"measurement": "glycan array binding signal (z-score)", "setting": "[39]", "value": -0.073}
    ]}
  ]
}
